Experimental findings from the supplement of paper PMC8748497 are described below.

Some of the results follow.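 The calls were made as follows: active = fold change of at least 2 over DMSO control; inactive = below 2-fold.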 Single values are uncertain, as repeats are few or missing.

In the assay the test system is HEK293 ARE/NRF2-luciferase reporter. In words: ARE/NRF2 luciferase reporter activity, fold change over DMSO control; higher = stronger NRF2/ARE reporter activation. The settings on record: 10 µM; 24 h. (In general: Reporter assays use an easily measured gene product as a stand-in for the process of interest.)
In the case of `O=S(=O)(c1cccc2cnccc12)N1CCCNCC1`, the “ARE/NRF2 luciferase reporter activity” value was inactive: 0.528.

For `C=C(C)[C@@H]1CC=C(CO)CC1`, the “ARE/NRF2 luciferase reporter activity” value is inactive: 1.22.

As for `NC(Cc1ccc(F)cc1)C(=O)O` (stereo not given), the “ARE/NRF2 luciferase reporter activity” value is inactive: 1.28.

As to `CC1=C2C(=CO[C@H](C)[C@H]2C)C(=O)C(C(=O)O)=C1O`, the “ARE/NRF2 luciferase reporter activity” value was active: 13.6.

As to `NCCCC(N)C(=O)O` (stereo not given), the “ARE/NRF2 luciferase reporter activity” value was inactive: 0.896.

On to `COc1ccc(C(=O)CCC(=O)O)c2ccccc12`, for which the “ARE/NRF2 luciferase reporter activity” value was inactive: 1.09.

In the case of `CCCCCCCCCCCCC[N+](C)(C)Cc1ccccc1`, the “ARE/NRF2 luciferase reporter activity” value was inactive: 0.0767.

`C[C@H]1C[C@H]2[C@@H]3CCC4=CC(=O)C=C[C@]4(C)[C@@]3(F)[C@@H](O)C[C@]2(C)[C@@]1(O)C(=O)COP(=O)(O)O`: the “ARE/NRF2 luciferase reporter activity” value was inactive: 1.05.

Consider `CC(C)COC(=O)c1ccc(N)cc1`, for which the “ARE/NRF2 luciferase reporter activity” value was inactive: 1.46.

Turning to `CC(=O)Oc1cccc(C(=O)O)c1OC(C)=O`, the “ARE/NRF2 luciferase reporter activity” value is inactive: 0.852.

Regarding `CCC1(C)OC(=O)N(C)C1=O` (stereo not given), the “ARE/NRF2 luciferase reporter activity” value was inactive: 0.868.

For the compound `CN(C)CCC=C1c2ccccc2COc2ccccc21`, the “ARE/NRF2 luciferase reporter activity” value is inactive: 0.827.

Regarding `C=C(C)[C@@H]1CC[C@]2(C(=O)O)CC[C@]3(C)[C@H](CC[C@@H]4[C@@]5(C)CC[C@H](O)C(C)(C)[C@@H]5CC[C@]43C)[C@@H]12`, the “ARE/NRF2 luciferase reporter activity” value is inactive: 0.876.

Take `O=c1oc2cc(O)ccc2s1`: the “ARE/NRF2 luciferase reporter activity” value was active: 6.21.

Regarding `CC(C)[C@H]1CC[C@H](C(=O)N[C@H](Cc2ccccc2)C(=O)O)CC1`, the “ARE/NRF2 luciferase reporter activity” value is inactive: 0.933.

As for `CC1CC(OC(=O)c2ccccc2O)CC(C)(C)C1` (stereo not given), the “ARE/NRF2 luciferase reporter activity” value was inactive: 1.04.

Take `O=C(O)c1cc(=O)c2ccccc2[nH]1`: the “ARE/NRF2 luciferase reporter activity” value was inactive: 0.862.

Turning to `COCCCOc1cc(C[C@@H](C[C@H](N)[C@@H](O)C[C@H](C(=O)NCC(C)(C)C(N)=O)C(C)C)C(C)C)ccc1OC`, the “ARE/NRF2 luciferase reporter activity” value is inactive: 0.923.

Regarding `O=C1C(O)=C(O)C(=O)C(O)=C1O`, the “ARE/NRF2 luciferase reporter activity” value is inactive: 1.05.

As to `COc1ccc2oc(-c3ccccc3)c(OC)c(=O)c2c1`, the “ARE/NRF2 luciferase reporter activity” value is active: 2.95.

As to `O=C[C@H](O)[C@H](O)CO`, the “ARE/NRF2 luciferase reporter activity” value was inactive: 0.982.

Consider `COC1=C[C@@H](C)[C@@H]2C[C@H]3OC(=O)C[C@H]4C(C)=C(OC)C(=O)[C@H]([C@@]2(C)C1=O)[C@@]34C`, for which the “ARE/NRF2 luciferase reporter activity” value was inactive: 0.861.

Regarding `C=CC1=C(C(=O)O)N2C(=O)[C@@H](NC(=O)/C(=N\O)c3csc(N)n3)[C@H]2SC1`, the “ARE/NRF2 luciferase reporter activity” value is inactive: 1.11.

Turning to `NS(=O)(=O)c1ccc(C(=O)O)cc1`, the “ARE/NRF2 luciferase reporter activity” value is inactive: 0.866.

As for `CN(C)CCOc1ccc(/C(=C(/CCCl)c2ccccc2)c2ccccc2)cc1`, the “ARE/NRF2 luciferase reporter activity” value is inactive: 0.103.

Turning to `CC1=CC(=O)NS(=O)(=O)O1`, the “ARE/NRF2 luciferase reporter activity” value is inactive: 1.05.

For `CC(=O)O[C@H]1CC[C@@]2(C)[C@@H](CC[C@@H]3[C@@H]2CC(=O)[C@]2(C)[C@@H]4[C@H](C[C@@H]32)O[C@]2(CC[C@@H](C)CO2)[C@H]4C)C1`, the “ARE/NRF2 luciferase reporter activity” value is inactive: 1.18.

Take `CC(=O)O[C@H]1C[C@@H](OC(C)=O)C(C)(C)[C@@H]2C[C@@H](OC(C)=O)[C@@]3(C)C4=CC(=O)O[C@@H](c5ccoc5)[C@]4(C)CC[C@@H]3[C@@]12C`: the “ARE/NRF2 luciferase reporter activity” value is inactive: 1.32.

On to `O=C(O)CCNC(=O)c1ccc(/N=N/c2ccc(O)c(C(=O)O)c2)cc1`, for which the “ARE/NRF2 luciferase reporter activity” value is inactive: 0.79.

Turning to `C[C@]12C=CC(=O)C=C1CC[C@@H]1[C@@H]2[C@@H](O)C[C@@]2(C)[C@H]1CC[C@]2(O)C(=O)COP(=O)(O)O`, the “ARE/NRF2 luciferase reporter activity” value was inactive: 0.923.

Turning to `CCCCNc1ccc(C(=O)OCCOCCOCCOCCOCCOCCOCCOCCOCCOC)cc1`, the “ARE/NRF2 luciferase reporter activity” value was inactive: 1.67.

Take `C[C@@H]1C[C@H]2[C@@H]3C[C@H](F)C4=CC(=O)C=C[C@]4(C)[C@@]3(F)[C@@H](O)C[C@]2(C)[C@@]1(O)C(=O)COC(=O)C(C)(C)C`: the “ARE/NRF2 luciferase reporter activity” value was inactive: 1.2.

With `O=C(O)/C=C/c1ccc(Cn2ccnc2)cc1`, the “ARE/NRF2 luciferase reporter activity” value is inactive: 1.18.

For the compound `CC(=O)N[C@H]1[C@H]([C@@H](O)[C@@H](O)CO)O[C@@](O)(C(=O)O)C[C@@H]1O`, the “ARE/NRF2 luciferase reporter activity” value is inactive: 0.876.

As to `CC(C)(CO)C(O)C(=O)NCCCO` (stereo not given), the “ARE/NRF2 luciferase reporter activity” value is inactive: 0.933.

`CCOC(=O)c1ncn2c1CN(C)C(=O)c1cc(F)ccc1-2`: the “ARE/NRF2 luciferase reporter activity” value was inactive: 0.906.

Consider `CCN[C@@H]1C[C@H](N)[C@@H](O[C@H]2OC(CN)=CC[C@H]2N)[C@H](O)[C@H]1O[C@H]1OC[C@](C)(O)[C@H](NC)[C@H]1O`, for which the “ARE/NRF2 luciferase reporter activity” value is inactive: 0.929.

For `C[N+]1(C)[C@@H]2CC[C@H]1C[C@@H](OC(=O)C(O)c1ccccc1)C2` (stereo not given in full), the “ARE/NRF2 luciferase reporter activity” value is inactive: 0.94.

Consider `C[C@H]1O[C@@H](n2cc(F)c(=O)[nH]c2=O)[C@H](O)[C@@H]1O`, for which the “ARE/NRF2 luciferase reporter activity” value is inactive: 0.667.

Regarding `O=C(O)CC(O)(CC(=O)O)C(=O)O`, the “ARE/NRF2 luciferase reporter activity” value was inactive: 1.04.
